Substitutions are numbered along the chain they refer to. Names may count otherwise. ± gives the standard deviation of the averaged measurements. Laboratory Escherichia coli strains with one amino-acid change in an essential protein, pooled on minimal glucose agar with carbenicillin or gentamicin at twice the control MIC (plus kanamycin and chloramphenicol for the plasmids), 48 h. Fold change of barcode share against drug-free plates; higher = less susceptible. Active = above 20 in both replicates (the paper's putatively resistant). '<' = one read or none on drug, '>' = one read or none on a drug-free plate. Shares are relative, so most strains fall below 1 when a few take over. Listed are strains with at least 15 reads on both drug-free plates, and hits; most hits rest on fewer reference reads. Replicate rank correlation about 0.5. Edits are read from barcodes.

The data set has as its target Escherichia coli (laboratory strain). In words: barcode share on antibiotic plates over drug-free plates; higher = less susceptible. As to the method: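 A pool of E. coli strains, each edited to carry one amino-acid change in an essential protein, was grown for 48 h on minimal glucose agar with or without antibiotic; strain barcodes were sequenced; mean of two replicates.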

[1] abbreviates: antibiotic: carbenicillin, 2× MIC (3.1 µg/mL).
Setting [2] is: antibiotic: gentamicin, 2× MIC (MIC 0.45 µg/mL).

B1: plsB M430P (protein)
chain: MSGWPRIYYKLLNLPLSILVKSKSIPADPAPELGLDTSRPIMYVLPYNSKADLLTLRAQCLAHDLPDPLEPLEIDGTLLPRYVFIHGGPRVFTYYTPKEESIKLFHDYLDLHRSNPNLDVQMVPVSVMFGRAPGREKGEVNPPLRMLNGVQKFFAVLWLGRDSFVRFSPSVSLRRMADEHGTDKTIAQKLARVARMHFARQRLAAVGPRLPARQDLFNKLLASRAIAKAVEDEARSKKISHEKAQQNAIALMEEIAANFSYEMIRLTDRILGFTWNRLYQGINVHNAERVRQLAHDGHELVYVPCHRSHMDYLLLSYVLYHQGLVPPHIAAGINLNFWPAGPIFRRLGAFFIRRTFKGNKLYSTVFREYLGELFSRGYSVEYFVEGGRSRTGRLLDPKTGTLSMTIQAMLRGGTRPITLIPIYIGYEHVPEVGTYAKELRGATKEKESLPQMLRGLSKLRNLGQGYVNFGEPMPLMTYLNQHVPDWRESIDPIEAVRPAWLTPTVNNIAADLMVRINNAGAANAMNLCCTALLASRQRSLTREQLTEQLNCYLDLMRNVPYSTDSTVPSASASELIDHALQMNKFEVEKDTIGDIIILPREQAVLMTYYRNNIAHMLVLPSLMAAIVTQHRHISRDVLMEHVNVLYPMLKAELFLRWDRDELPDVIDALANEMQRQGLITLQDDELHINPAHSRTLQLLAAGARETLQRYAITFWLLSANPSINRGTLEKESRTVAQRLSVLHGINAPEFFDKAVFSSLVLTLRDEGYISDSGDAEPAETMKVYQLLAELITSDVRLTIESATQGEG
With B1, the “fold change of barcode share” value reads like this: under setting [1], 0.367 ± 0.031; under setting [2], 0.125 ± 0.16.

B2: plsB M476D (protein)
chain: B1 chain with P430M, M476D
Regarding B2, the “fold change of barcode share” value was 0.224 ± 0.12 under setting [1] and < 0.00537 under setting [2].

B3: plsB M476W (protein)
chain: B1 chain with P430M, M476W
As to B3, the “fold change of barcode share” value was found to be 0.368 ± 0.23 under setting [1] and 0.0109 ± 0.0075 under setting [2].

B4: plsB M476Q (protein)
chain: B1 chain with P430M, M476Q
Turning to B4, the “fold change of barcode share” value under setting [1] came to 0.254 ± 0.18 and the “fold change of barcode share” value under setting [2] amounted to 0.142 ± 0.19.

These data come from the supplement of paper PMC11876631.
